Source: the supplement of paper PMC4604168 (melanoma cell lines)
The other results are listed elsewhere or left out. Most values come without repeats; read them as rough.

Assays:
Assay in all cases: cell count relative to DMSO control; melanoma cells; higher = more viable cells
Settings in all cases: library dose: low library concentration; 72 h
[1] = tested on: MZ2-MEL
[2] = tested on: MeWo
[3] = tested on: RPMI7951
[4] = tested on: RVH-421
[5] = tested on: SkMel28
[6] = tested on: SkMel2
[7] = tested on: SkMel30
[8] = tested on: UACC62
[9] = tested on: WM115
[10] = tested on: WM1716
[11] = tested on: WM1745
[12] = tested on: WM3526
[13] = tested on: WM3619
[14] = tested on: WM451Lu
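Note: cell number obtained by counting DAPI-stained nuclei in high-throughput microscope images with image analysis software, screen run in 1,536-well plates.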

Structure (SMILES)	cell count [1]	cell count [2]	cell count [3]	cell count [4]	cell count [5]	cell count [6]	cell count [7]	cell count [8]	cell count [9]	cell count [10]	cell count [11]	cell count [12]	cell count [13]	cell count [14]
Cc1ccc(Nc2nccc(N(C)c3ccc4c(C)n(C)nc4c3)n2)cc1S(N)(=O)=O [Pazopanib] + CCCCCCCCc1ccc(CCC(N)(CO)CO)cc1 [fingolimod] (first compound 0.4 µM, partner dose 2 µM)	75.3%	106%	74.9%	78.7%	93.2%	107%	97.3%	88.1%	78%	71.7%	95.7%	89.1%	83.3%	88%
CC1(C)CCC(c2ccc(Cl)cc2)=C(CN2CCN(c3ccc(C(=O)NS(=O)(=O)c4ccc(N[C@H](CCN5CCOCC5)CSc5ccccc5)c(S(=O)(=O)C(F)(F)F)c4)cc3)CC2)C1 + C=C(c1ccc(C(=O)O)cc1)c1cc2c(cc1C)C(C)(C)CCC2(C)C [Bexarotene] (first compound 0.4 µM, partner dose 2 µM)	89.6%	72.3%	56.4%	58.6%	80.7%	79.6%	62.5%	88.9%	86.1%	62.6%	20.3%	89.5%	60.6%	74.2%
CC1(C)CCC(c2ccc(Cl)cc2)=C(CN2CCN(c3ccc(C(=O)NS(=O)(=O)c4ccc(N[C@H](CCN5CCOCC5)CSc5ccccc5)c(S(=O)(=O)C(F)(F)F)c4)cc3)CC2)C1 + CN(c1ncccc1CNc1nc(Nc2ccc3c(c2)CC(=O)N3)ncc1C(F)(F)F)S(C)(=O)=O [PF562271] (first compound 0.4 µM, partner dose 0.08 µM)	88%	69.8%	44.1%	48%	87.1%	78%	72.3%	81.2%	78.6%	75.2%	7.71%	101%	90.2%	66.5%
O=C(/C=C/c1cccnc1)NCCCCC1CCN(C(=O)c2ccccc2)CC1 + Cc1nc(Nc2ncc(C(=O)Nc3c(C)cccc3Cl)s2)cc(N2CCN(CCO)CC2)n1 [dasatanib] (first compound 0.01 µM, partner dose 0.004 µM)	24.9%	89.2%	75.2%	54.5%	77.1%	41.1%	93.3%	83.7%	79.4%	76.6%	74.9%	83.8%	78.4%	82%
Cc1ccc(Nc2nccc(N(C)c3ccc4c(C)n(C)nc4c3)n2)cc1S(N)(=O)=O [Pazopanib] + CCN(CC)CCNC(=O)c1c(C)[nH]c(/C=C2\C(=O)Nc3ccc(F)cc32)c1C [sunitinib] (first compound 0.4 µM, partner dose 0.4 µM)	77%	91.2%	106%	108%	104%	99.7%	93.8%	103%	102%	125%	101%	85.6%	97.2%	95.6%
O=C(/C=C/c1cccnc1)NCCCCC1CCN(C(=O)c2ccccc2)CC1 + CCCCCCCCc1ccc(CCC(N)(CO)CO)cc1 [fingolimod] (first compound 0.01 µM, partner dose 2 µM)	40%	90.8%	79.8%	44.1%	73.1%	26.9%	98.1%	95.9%	93.8%	70.7%	92.2%	90.2%	70.7%	111%
CC1(C)CCC(c2ccc(Cl)cc2)=C(CN2CCN(c3ccc(C(=O)NS(=O)(=O)c4ccc(N[C@H](CCN5CCOCC5)CSc5ccccc5)c(S(=O)(=O)C(F)(F)F)c4)cc3)CC2)C1 + Cn1c(Nc2ccc(C(F)(F)F)cc2)nc2cc(Oc3ccnc(-c4ncc(C(F)(F)F)[nH]4)c3)ccc21 [CHIR265] (first compound 0.4 µM, partner dose 0.08 µM)	75%	39.1%	30.7%	10.8%	45.6%	59.2%	39.9%	46.7%	22.7%	54.4%	4.64%	41.2%	39.6%	71.2%
CC1(C)CCC(c2ccc(Cl)cc2)=C(CN2CCN(c3ccc(C(=O)NS(=O)(=O)c4ccc(N[C@H](CCN5CCOCC5)CSc5ccccc5)c(S(=O)(=O)C(F)(F)F)c4)cc3)CC2)C1 + Nc1ncn([C@H]2C[C@H](O)[C@@H](CO)O2)c(=O)n1 [decitabine] (first compound 0.4 µM, partner dose 0.1 µM)	85.6%	63%	48.2%	70.2%	90.3%	81.4%	79.8%	74.8%	60.1%	56.6%	10.3%	83.2%	73.8%	91.1%
CC1(C)CCC(c2ccc(Cl)cc2)=C(CN2CCN(c3ccc(C(=O)NS(=O)(=O)c4ccc(N[C@H](CCN5CCOCC5)CSc5ccccc5)c(S(=O)(=O)C(F)(F)F)c4)cc3)CC2)C1 + C#Cc1cccc(Nc2ncnc3cc(OCCOC)c(OCCOC)cc23)c1 [erlotinib] (first compound 0.4 µM, partner dose 0.8 µM)	88.5%	66.1%	61.1%	78.8%	96%	93.4%	64.5%	94%	77.3%	73.5%	8.36%	94%	74%	97.2%
Cc1ccc(Nc2nccc(N(C)c3ccc4c(C)n(C)nc4c3)n2)cc1S(N)(=O)=O [Pazopanib] + CC(=O)O[C@@]12CO[C@@H]1C[C@H](O)[C@@]1(C)C(=O)[C@H](O)C3=C(C)[C@@H](OC(=O)[C@H](O)[C@@H](NC(=O)OC(C)(C)C)c4ccccc4)C[C@@](O)([C@@H](OC(=O)c4ccccc4)[C@H]21)C3(C)C [Docetaxel] (first compound 0.4 µM, partner dose 0.0001 µM)	57.2%	58.7%	45.9%	51.9%	57%	52.3%	36.5%	51.3%	73.7%	36.1%	66.8%	46.3%	83%	69.4%
O=C(/C=C/c1cccnc1)NCCCCC1CCN(C(=O)c2ccccc2)CC1 + C[C@@H](Oc1cc(-c2cnn(C3CCNCC3)c2)cnc1N)c1c(Cl)ccc(F)c1Cl [Crizotinib] (first compound 0.01 µM, partner dose 0.2 µM)	43.3%	105%	134%	58.9%	92%	33.6%	123%	96.8%	92.3%	111%	88.1%	116%	87.7%	96.5%
O=C(/C=C/c1cccnc1)NCCCCC1CCN(C(=O)c2ccccc2)CC1 + Cc1cc(Nc2cc(N3CCN(C)CC3)nc(/C=C/c3ccccc3)n2)n[nH]1 [ENMD2076] (first compound 0.01 µM, partner dose 0.04 µM)	41%	99%	96.2%	65.9%	91.2%	33.3%	101%	106%	97%	97.9%	93.5%	107%	103%	106%
O=C(/C=C/c1cccnc1)NCCCCC1CCN(C(=O)c2ccccc2)CC1 + COCC[n+]1c2c(n(Cc3cnccn3)c1C)C(=O)c1ccccc1C2=O [YM155] (first compound 0.01 µM, partner dose 0.0004 µM)	48.2%	106%	80.2%	47.4%	116%	33.1%	64.8%	97.3%	98.3%	98.6%	92.9%	94%	81.7%	85.8%
CC1(C)CCC(c2ccc(Cl)cc2)=C(CN2CCN(c3ccc(C(=O)NS(=O)(=O)c4ccc(N[C@H](CCN5CCOCC5)CSc5ccccc5)c(S(=O)(=O)C(F)(F)F)c4)cc3)CC2)C1 + Nc1ccn([C@@H]2O[C@H](CO)[C@@H](O)C2(F)F)c(=O)n1 [gemcitabine] (first compound 0.4 µM, partner dose 0.0004 µM)	80%	63.7%	41.3%	52.1%	93.3%	86.8%	92.3%	113%	80.5%	63.6%	15.4%	97.6%	61.7%	90.8%
Cc1ccc(Nc2nccc(N(C)c3ccc4c(C)n(C)nc4c3)n2)cc1S(N)(=O)=O [Pazopanib] + C[C@]1(c2nc3c(C(N)=O)cccc3[nH]2)CCCN1 [Veliparib] (first compound 0.4 µM, partner dose 1.4 µM)	70.1%	92%	75.2%	72.7%	75.7%	91.6%	80.6%	84.4%	94.2%	74.7%	104%	77.5%	111%	89.9%
O=C(/C=C/c1cccnc1)NCCCCC1CCN(C(=O)c2ccccc2)CC1 + COc1ccc(C2=N[C@@H](c3ccc(Cl)cc3)[C@@H](c3ccc(Cl)cc3)N2C(=O)N2CCNC(=O)C2)c(OC(C)C)c1 [Nutlin-3] (first compound 0.01 µM, partner dose 0.1 µM)	48%	112%	121%	65%	92.5%	46.5%	115%	79.5%	99.7%	102%	97.3%	101%	80.1%	99.2%
CC1(C)CCC(c2ccc(Cl)cc2)=C(CN2CCN(c3ccc(C(=O)NS(=O)(=O)c4ccc(N[C@H](CCN5CCOCC5)CSc5ccccc5)c(S(=O)(=O)C(F)(F)F)c4)cc3)CC2)C1 + NC(=O)c1ccc(N(C(N)=O)c2c(F)cccc2F)nc1-c1ccc(F)cc1F [VX702] (first compound 0.4 µM, partner dose 0.4 µM)	97.5%	75.5%	65.2%	87.2%	87.7%	82.9%	67.5%	95.8%	91.8%	75.4%	11.7%	84.6%	74.2%	85.3%
Cc1ccc(Nc2nccc(N(C)c3ccc4c(C)n(C)nc4c3)n2)cc1S(N)(=O)=O [Pazopanib] + CC(C)C[C@H](NC(=O)[C@H](Cc1ccccc1)NC(=O)c1cnccn1)B(O)O [Bortezomib] (first compound 0.4 µM, partner dose 0.001 µM)	80.4%	85.2%	79.3%	80.3%	99.9%	97.7%	62.2%	78.9%	96.4%	85.3%	89.5%	76.4%	86.3%	114%
